Assay results published in article PMC4336329 (PLoS ONE, 2015).
About 2,200 (0.71%) of roughly 310,000 compounds showed an effect of 50% or more. The effect is printed as a negative number. Some of the results follow. Where a SMILES comes first, the peptide text is derived from it. [ ]: non-standard residue; d: D form. The star is where a group is joined. ξ: configuration not given here. Boc = CC(C)(C)OC(=O)*; ξP = O=C(O)C1CCCN1

biological target: human ether-à-go-go-related gene (hERG) potassium channel (human, UniProt Q12809); assay: primary screen, population patch clamp on CHO cells stably expressing hERG
Sequence (Q12809 whole entry, looked up): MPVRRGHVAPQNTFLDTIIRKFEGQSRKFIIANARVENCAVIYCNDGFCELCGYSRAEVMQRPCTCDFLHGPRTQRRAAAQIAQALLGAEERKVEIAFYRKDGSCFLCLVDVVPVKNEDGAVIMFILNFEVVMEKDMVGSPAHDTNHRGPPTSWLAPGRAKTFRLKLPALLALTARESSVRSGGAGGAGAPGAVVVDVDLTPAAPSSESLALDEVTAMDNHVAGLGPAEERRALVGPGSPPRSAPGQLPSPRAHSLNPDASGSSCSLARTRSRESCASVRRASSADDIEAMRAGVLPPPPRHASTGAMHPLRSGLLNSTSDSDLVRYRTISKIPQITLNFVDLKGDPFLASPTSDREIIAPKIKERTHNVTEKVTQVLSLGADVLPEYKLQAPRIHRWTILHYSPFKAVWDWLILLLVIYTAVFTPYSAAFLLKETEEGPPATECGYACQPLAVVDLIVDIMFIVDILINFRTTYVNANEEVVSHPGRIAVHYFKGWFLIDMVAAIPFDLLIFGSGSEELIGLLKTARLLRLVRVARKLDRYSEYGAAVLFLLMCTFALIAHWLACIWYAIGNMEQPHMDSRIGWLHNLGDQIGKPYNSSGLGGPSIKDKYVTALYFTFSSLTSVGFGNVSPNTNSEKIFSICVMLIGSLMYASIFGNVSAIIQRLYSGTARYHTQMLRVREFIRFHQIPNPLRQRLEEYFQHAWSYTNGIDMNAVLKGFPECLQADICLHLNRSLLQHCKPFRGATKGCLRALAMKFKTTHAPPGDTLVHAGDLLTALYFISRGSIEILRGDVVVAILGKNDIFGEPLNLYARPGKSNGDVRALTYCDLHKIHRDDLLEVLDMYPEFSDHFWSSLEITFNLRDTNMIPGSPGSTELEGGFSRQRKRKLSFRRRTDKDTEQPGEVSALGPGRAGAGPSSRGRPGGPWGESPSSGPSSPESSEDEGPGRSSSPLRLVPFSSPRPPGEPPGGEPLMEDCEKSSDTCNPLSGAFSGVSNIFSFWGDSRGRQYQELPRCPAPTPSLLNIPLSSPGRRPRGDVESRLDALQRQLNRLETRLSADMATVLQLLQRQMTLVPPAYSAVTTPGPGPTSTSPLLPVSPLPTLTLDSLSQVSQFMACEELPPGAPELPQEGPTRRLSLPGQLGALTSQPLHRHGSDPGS

Row | Compound | hERG current change (%, negative = inhibition) at 1uM [%]
1 | Cc1nc(-c2nnc(SCC(=O)Nc3cc(C(F)(F)F)cc(C(F)(F)F)c3)n2C)cs1 | 16
2 | O=c1c2ccccc2nnn1CSc1nc2cc(Cl)ccc2c(=O)n1Cc1ccco1 | -4.83
3 | O=C(Cn1cnc2c(cnn2-c2ccccc2Cl)c1=O)N1CCc2ccccc21 | 6.63
4 | Cc1cc(C)c(S(=O)(=O)Nc2nnc(CC(C)C)s2)c(C)c1 | 14.5
5 | Cc1noc(C)c1CSc1ncnc2sc(C)c(C)c12 | 10.1
6 | Cc1ccc(SCCN2CCC(O)CCC2=O)cc1 (centres unmarked) | 12.9
7 | CCOC(=O)C1CCCN(C(=O)c2ccc(Cl)c(S(=O)(=O)N3CCCCC3)c2)C1 (centres unmarked) | 4.49
8 | O=C(O)CCN(CC(=O)c1ccc(Cl)cc1)S(=O)(=O)c1ccc([N+](=O)[O-])cc1 | -5.86
9 | C=CCn1c(SCc2ccc(Br)cc2F)nc2cc(C(=O)O)ccc2c1=O | 20.6
10 | CCOc1ccc(S(=O)(=O)NC(C)C(=O)NCc2ccccn2)cc1 (centres unmarked) | 14.4
11 | CC1CC(C)CN(C(=O)CSc2nc3ccsc3c(=O)n2Cc2ccccn2)C1 (centres unmarked) | -1.17
12 | O=c1cc(C(F)(F)F)[nH]c2ccccc12 | 8.61
13 | Cc1ccc(S(=O)(=O)NC(=O)Nc2cc(C)no2)cc1 | 7.78
14 | COc1cc(OC)cc(-c2nc3nc(C)c(CCC(=O)NCC(OC)OC)c(C)n3n2)c1 | 5.9
15 | O=C(CN(Cc1ccco1)C(=O)CNS(=O)(=O)c1ccc(F)cc1)NCc1ccco1 | -2.72
16 | Cc1ccc(C)c(Cn2nnc3c(=O)[nH]c(C(=O)Nc4ccc(F)cc4)nc32)c1 | 3.15
17 | CN(C(=O)CSc1nnc(-c2ccccc2F)n1N)C1CCCCC1 | 6.18
18 | Cc1cc(=O)[nH]c2ccc(S(=O)(=O)NC3CCCCC3)cc12 | 7.42
19 | CCC(=O)Oc1ccc(C(=O)Nc2cccc(C(=O)NCC(C)C)c2)cc1 | 7.7
20 | OC(COCC(F)(F)C(F)(F)C(F)(F)C(F)F)Cn1c2ccc(Cl)cc2c2cc(Cl)ccc21 (centres unmarked) | 3.78
21 | CC12CCC(=O)N1C(C(=O)Nc1cc(C(F)(F)F)ccc1N1CCOCC1)CS2 (centres unmarked) | 10.5
22 | COc1c2ccoc2c(OC[C@@H](O)C(C)(C)O)c2oc(=O)ccc12 | 5.59

Row | Compound | hERG current change (%, negative = inhibition) at 1uM [%]
23 | Cn1c(CNC(=O)Nc2cccc(Cl)c2)nnc1SCc1ccccc1 | 0.6
24 | O=C(CN1CCC(C(=O)c2ccc3c(c2)OCCO3)CC1)NC1CCCC1 | 11.1
25 | Clc1nccc(N2CCN(c3ccccc3Cl)CC2)n1 | 4.84
26 | Cc1ccc(SCC(=O)NCCN2C(=O)CSC2=O)cc1C | 8
27 | S=C(Nc1ccc(Cl)cc1)NC1CC2CCCC(C1)N2C1CC1 (centres unmarked) | -6.76
28 | CCOc1cc2[nH]c(=S)n(Cc3ccc(C(=O)N4CCN(C)CC4)cc3)c(=O)c2cc1OCC | 6.41
29 | COC(=O)CNC(=O)C1CCCN1C(=O)CNC(=O)OC(C)(C)C (stereo not drawn) (Boc-Gly-[ξP]-Gly-OMe) | 9.5
30 | CC(=O)Nc1ccc(N2C(=O)c3cccc(NC(C)=O)c3C2=O)cc1 | 17.6
31 | COc1ccccc1Nc1ccc([N+](=O)[O-])cn1 | 8.99
32 | Cc1sc2ncnc(SCC(=O)N3CCCC(C(N)=O)C3)c2c1C (centres unmarked) | 13.7
33 | CCN1CCN(C(c2cccnc2)c2c(NC(=O)c3ccco3)sc(C)c2C)CC1 (centres unmarked) | -13.7
34 | CC(C)CNC(=S)Nc1ccc(F)cc1 | 17.7
35 | Cc1ccc(C)c(CSc2nnc(CCN)o2)c1.Cl | 10.7
36 | CCc1ccc2nc(NC(=O)Cn3cnc4ccccc4c3=O)sc2c1 | 11.3
37 | O=c1oc(CCCO)cc2ccc(/C=C/c3cccc([N+](=O)[O-])c3)cc12 | 13
38 | Cc1ccc(N(C(=O)CNC(=O)c2ccco2)C(C(=O)NCC2CCCO2)c2ccccc2)c(C)c1 (centres unmarked) | 7.15
39 | Cc1ccc(NS(=O)(=O)c2cccc(C(=O)N3CCCCCCC3)c2)cc1 | 13.3
40 | Cc1cccc(NC(=S)N2CCN(Cc3ccc4c(c3)OCO4)CC2)c1C | 2.54
41 | CCC(CC)=NNC(=O)c1ccccc1OCc1ccc(F)cc1 | 2.8
42 | O=C(Nc1ccccc1C(=O)O)c1cc(S(=O)(=O)Nc2ccccc2)ccc1Cl | 19.5
43 | COc1ccc(NC(=O)CSCC(=O)Nc2nnc(C)s2)cc1 | 19.8
44 | O=C(Nc1cccc(NC(=O)c2ncn[nH]2)c1)c1cccc(Cl)c1 | 13
